The supplement of paper PMC10126150
Sequences with one replicate were seen in a single cluster, so their values are uncertain.

Tested on: ATP
Experiment: switch fluorescence ratio, 500 uM ATP over buffer (Cy3 cluster intensity, sum of 5 cycles each) (fold (ratio)); higher = stronger signal-on switching upon ATP binding; sequences stand for … in TCGTCGGCAGCGTCAGATGTGTATAAGAGACAGTTTTTTTTTTTTTTTTTTTTTTTTT…TC
Conditions: aptamer strand: ATP DNA aptamer (quencher-CACCTGGGGGAGTATTGCGGAGGAAGG + anchor), 100 nM annealed; ATP concentration: 500 uM; one replicate
How it was run: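 Imaging in selection buffer was followed by imaging after 15 min with 500 uM ATP at 22 °C, for Cy3-labelled switching-strand clusters annealed to 100 nM quencher-labelled ATP aptamer on a modified Illumina MiSeq flow-cell. Five of these buffer/ATP cycles ran, separated by NaOH stripping and re-annealing. The fluorescence ratio per cluster is summed target-cycle over summed buffer-cycle Cy3 intensity, averaged per switch-domain sequence; clusters outside 100-1000 RFU were removed.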
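Further: ATP exposure 15 min at 22 °C before imaging.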

Row | Sequence | switch fluorescence ratio
1 | CAGGATCCTG | 1.01
2 | CAGGATCTAC | 1.09
3 | CAGGCATCTT | 1
4 | CAGGCCTAAA | 0.96
5 | CAGGCGATGC | 1.28
6 | CAGGCGCTAC | 5.09
7 | CAGGCGGACT | 0.994
8 | CAGGCGGCTC | 1.01
9 | CAGGCGGGCA | 0.996
10 | CAGGCTTCAT | 1.05
11 | CAGGGAAGTG | 0.909
12 | CAGGGACACA | 1.1
13 | CAGGGATACG | 1.03
14 | CAGGGCGTGC | 1.05
15 | CAGGGGACCT | 1.27
16 | CAGGGGGTT | 1.01
17 | CAGGGTAAAG | 1.02
18 | CAGGGTATTA | 0.994
19 | CAGGGTCCTT | 0.981
20 | CAGGGTCGCA | 1.02
21 | CAGGGTCGGT | 1.02
22 | CAGGGTGAA | 1.02
23 | CAGGGTTTA | 1.05
24 | CAGGTAACAA | 1.02
25 | CAGGTCACTC | 1.01
26 | CAGGTCGGTA | 0.995

Row | Sequence | switch fluorescence ratio
27 | CAGGTGGGTT | 0.973
28 | CAGGTTACGG | 1.03
29 | CAGGTTATTA | 0.952
30 | CAGGTTGCAT | 0.984
31 | CAGGTTTCCG | 0.971
32 | CAGGTTTTAA | 1.03
33 | CAGTACGATT | 1.04
34 | CAGTACTCGG | 1.04
35 | CAGTAGCCTA | 1.12
36 | CAGTAGTGCC | 0.99
37 | CAGTATCACT | 1
38 | CAGTATGGTT | 0.998
39 | CAGTCAAATT | 1.01
40 | CAGTCACTGT | 1
41 | CAGTCAGCTT | 0.997
42 | CAGTCAGGTG | 4.28
43 | CAGTCCCTAT | 1
44 | CAGTCCTTAT | 1.01
45 | CAGTCGAAGA | 1
46 | CAGTCGTA | 1.08
47 | CAGTCTCCTA | 1.02
48 | CAGTCTCGCC | 1.02
49 | CAGTCTTTCT | 1.01
50 | CAGTGACGCG | 1.12
51 | CAGTGAGAGG | 0.952
52 | CAGTGATATA | 1.01

Row | Sequence | switch fluorescence ratio
53 | CAGTGATG | 1.13
54 | CAGTGCAGGC | 0.876
55 | CAGTGCTGAT | 0.953
56 | CAGTGCTGGG | 1.02
57 | CAGTGCTTGG | 1.01
58 | CAGTGGACCA | 0.996
59 | CAGTGGGAGT | 1.01
60 | CAGTGTATAG | 0.963
61 | CAGTGTATAT | 0.985
62 | CAGTGTCTTG | 1.01
63 | CAGTGTTCCA | 1.01
64 | CAGTGTTTTG | 0.983
65 | CAGTTATACA | 1.03
66 | CAGTTCCGCT | 1.11
67 | CAGTTCTTGT | 1.01
68 | CAGTTGGGTG | 1.01
69 | CATAAACCTA | 1.1
70 | CATAAAGCAT | 1.03
71 | CATAAATAAA | 1.02
72 | CATAAGCTTT | 1.03
73 | CATAAGGCGG | 1.02
74 | CATAATGAAC | 1.01
75 | CATACAAGGA | 0.99
76 | CATACATTGG | 0.948
77 | CATACCACGT | 1.03
78 | CATACTTCGC | 1.32

Row | Sequence | switch fluorescence ratio
79 | CATAGAAGGA | 1.01
80 | CATAGAGTT | 0.971
81 | CATAGCCATC | 1.25
82 | CATAGCCGCA | 1.07
83 | CATAGCCTGA | 1.02
84 | CATAGGCGTT | 0.94
85 | CATAGGGGT | 1
86 | CATAGGTCGT | 1.05
87 | CATAGTAGGG | 1.02
88 | CATAGTAGTT | 1.04
89 | CATAGTATC | 0.961
90 | CATAGTGCAG | 1.04
91 | CATAGTTTC | 0.958
92 | CATATAGGCG | 1.06
93 | CATATATTAC | 1.01
94 | CATATCCGT | 1.04
95 | CATATCGCTG | 1.01
96 | CATATGGTCT | 1.03
97 | CATATTCACC | 1.04
98 | CATATTGGAA | 0.989
99 | CATATTGGCG | 1.05
100 | CATCAACGGC | 1.03
101 | CATCACGTGT | 0.962
